Where “and” joins values, the source holds several entries; their conditions need not be identical. Equal entries are not always repeated. Hit rate of the full screen: of about 420,000 compounds, about 64,000 (15%) were called active. The shares of active, inactive and inconclusive entries below differ from those in the screen. Calls come from the whole dose curve; as a rule, active = well fitted inhibition curve with a large enough effect; inconclusive = small, poorly fitted or top-dose-only effect; inactive = flat fitted curve, though single readings scatter. Where the call is inconclusive, the potency comes from a doubtful curve fit.
assay: qHTS for Inhibitors of human tyrosyl-DNA phosphodiesterase 1 (TDP1): qHTS in cells in absence of CPT; conditions: DT40 Tdp1-/- hTDP1 cells, no CPT, ATP luminescence, 48 h; activity change, negative = growth inhibition: at 46.2 µM (top of the series); note: nearly all actives have a fitted effect of over 55% in size
In short: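 Chicken DT40 Tdp1-/- cells complemented with human TDP1, screened without camptothecin (DMSO vehicle only), 400 cells/well. Compounds pin-transferred, cells incubated at 37 °C for at least 48 hr. Growth read as ATP-dependent luminescence (CellTiter-Glo, 30 min at RT).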
% is set by controls: 0 for no effect and ±100 for the full control effect; potency is the fitted concentration of half-maximal effect; tags give direction and shape of the fitted curve.

Row | SMILES | activity change, negative = growth inhibition | Potency
1 | Cc1ccc(C(=O)NNC(=O)C2CCN(S(=O)(=O)c3ccc(Cl)cc3)CC2)cc1 | inactive: -6.04% | 
2 | O=C(CSc1nnc2scc(-c3ccc(Cl)cc3)n12)Nc1cccc(C(F)(F)F)c1 |  | inconclusive: 16.4 µM [inhibitor, partial curve, poor fit]
3 | O=C(Nc1nc(-c2ccc3c(c2)OCO3)cs1)C1COc2ccccc2O1 (stereo unspecified) |  | inconclusive: 29.1 µM [inhibitor, single point]
4 | CN(C)CCCn1c2c(c(SCC(=O)Nc3cccc4ccccc34)nc1=O)CCC2 |  | inconclusive: 29.1 µM [inhibitor, single point]
5 | NC(=O)c1cc([N+](=O)[O-])c(Cl)cc1NCc1ccncc1 |  | inconclusive: 25.9 µM [inhibitor, single point]
6 | Cc1sc2ncnc(SCC(=O)N3CCCC(C(N)=O)C3)c2c1C (stereo unspecified) | inactive: 7.08% | 
7 | Cc1ccccc1C(=O)NC(C)c1nnc2n1CCN(Cc1ccnc3ccccc13)CC2 (stereo unspecified) |  | inconclusive: 20.6 µM [inhibitor, single point]
8 | C/C(=N\NC(=O)c1cc(-c2ccc(C)s2)nc2ccccc12)c1cccnc1 |  | inconclusive: 14.6 µM [inhibitor, partial curve]
9 | O=C1CC(c2ccccc2)Cc2nc3nc(C(F)(F)F)nn3cc21 (stereo unspecified) | inactive: -12.7% | 
10 | CCN1CCN(c2ncc3c(n2)CCN(Cc2sccc2C)C3)CC1 |  | active: 23.1 µM
11 | COc1ccc(CCNC(=O)COC(=O)C23CC4CC(CC(C4)C2)C3)cc1 |  | inconclusive: 29.1 µM [inhibitor, single point]
12 | CC(C)Cn1c(CN2CCN(c3ccccc3F)CC2)nc2c1c(=O)[nH]c(=O)n2C |  | inconclusive: 23.1 µM [inhibitor, single point]
13 | CCn1c(=O)c2cc(C(=O)N3CCN(c4cccc(OC)c4)CC3)sc2c2ccccc21 |  | active: 13 µM
14 | NC(=O)c1ccc(N2CCCCC2)c(N2C(=O)C3C4C=CC(C4)C3C2=O)c1 (stereo unspecified) |  | inconclusive: 29.1 µM [inhibitor, single point]
15 | COC(=O)c1ccc(NC(=O)CNc2ccccc2)cc1 | inactive: -5.4% | 
16 | Cc1ccc(N=Cc2nc(-c3ccco3)oc2O)cc1 |  | inconclusive: 14.6 µM [inhibitor, single point]
17 | Cc1ccc(NC(=O)CN(C)S(=O)(=O)c2cccc3cccnc23)cc1F |  | inconclusive: 29.1 µM [inhibitor, single point] and inconclusive: 16.4 µM [inhibitor, single point]
18 | COc1ccc(S(=O)(=O)N2CCN(C)CC2)cc1NC(=O)c1ccccc1 | inactive: -12% | 
19 | Cc1cc(C)c(C)c(S(=O)(=O)N2CCN(CC(=O)Nc3ccc([N+](=O)[O-])cc3)CC2)c1C | inactive: -24% | 
20 | COC(=O)Cc1ccccc1NS(=O)(=O)c1ccc(C)cc1 | inactive: -3.79% | 
21 | Clc1ccccc1CSc1nnc(-c2ccco2)c(-c2ccco2)n1 | inactive: -20.7% | 
22 | COc1cccc(NC(=O)c2ccccc2Oc2ccccc2)c1 | inactive: -8.11% | 
23 | C[C@@H]1CCCN1[C@@H]1CS(=O)(=O)N[C@H]1COCc1ccccc1 | inactive: -11.7% | 
24 | Cc1ccc(-c2nc3cc(NS(=O)(=O)c4ccc(C)cc4)ccc3o2)cc1 |  | inconclusive: 35.5 µM [inhibitor, single point]

Row | SMILES | activity change, negative = growth inhibition | Potency
25 | O=C(Nc1ccc(Br)cc1)C1CCCN1S(=O)(=O)c1cccs1 (stereo unspecified) |  | active: 13 µM
26 | Cc1ccccc1C(=O)Nc1ccccc1NC(=O)c1ccccc1Br |  | inconclusive: 29.1 µM [inhibitor, single point]
27 | CCc1cccc(-n2nnc(-c3nsc(NC(=O)c4ccc(C)cc4)n3)c2C)c1 |  | active: 8.2 µM
28 | COC(=O)c1ccc(/C=C/C(=O)c2cccc(OC)c2)cc1 |  | active: 23.1 µM
29 | Cc1sc2ncn(CC(=O)N3CCN(c4ccccc4)CC3)c(=O)c2c1S(=O)(=O)N1CCN(c2ncccn2)CC1 |  | inconclusive: 23.1 µM [inhibitor, single point]
30 | CC1CCN(c2ccc(C(=O)Nc3ccc4c(c3)OCO4)cc2[N+](=O)[O-])CC1 |  | active: 9.2 µM
31 | COc1cc2c(cc1OC)C(COc1cc(C)cc(C)c1)N(C(C)=O)CC2 (stereo unspecified) |  | inconclusive: 16.4 µM [inhibitor, single point]
32 | COC(=O)C1=C(CS(=O)(=O)c2ccccc2)NC(=O)NC1c1ccc(O)cc1 (stereo unspecified) | inactive: 0.418% | 
33 | COc1ccc(-c2nc(CN3CCN(Cc4cccc(F)c4)CC3)c(C)o2)cc1 |  | inconclusive: 29.1 µM [inhibitor, single point]
34 | CC(C)(CCc1ccccn1)C(=O)CCCc1ccccn1 |  | inconclusive: 16.4 µM [inhibitor, partial curve]
35 | CC(C)OC(=O)c1ccc(NC(=O)c2cccc(-n3cnnn3)c2)cc1 |  | inconclusive: 29.1 µM [inhibitor, single point]
36 | COc1ccc(-c2csc(N3CCN(Cc4ccc5c(c4)OCO5)CC3)n2)cc1 |  | inconclusive: 16.4 µM [inhibitor, single point]
37 | Cc1cc2c(cc3c(=O)n(CC(=O)NCCCN4CC(C)CC(C)C4)ncn32)s1 (stereo unspecified) | inactive: 9.54% | 
38 | CC1=NN(c2ccccc2)C(=O)/C1=C/c1c(O)n(-c2ccc(F)cc2)[nH]c1=O | inactive: -21.4% | 
39 | O=[N+]([O-])c1cc2oc3c(c2c(C=NCc2ccncc2)c1O)CCCC3 |  | inconclusive: 29.1 µM [inhibitor, single point]
40 | Cc1cccn2c(=O)c3cc(C(=O)NCc4cccnc4)c(=N)n(CC4CCCO4)c3nc12 (stereo unspecified) |  | inconclusive: 25.9 µM [inhibitor, single point]
41 | COc1ccc(NC(=O)c2c3c(nc4ccccc24)CCN(Cc2ccccc2)C3)c(OC)c1 |  | inconclusive: 18.4 µM [inhibitor, single point]
42 | Cc1ccc(OC(=O)c2cc(C)nn2C(C)(C)C)cc1 |  | inconclusive: 25.9 µM [inhibitor, single point]
43 | O=C(c1ccccc1-c1ccccc1)N1CCN(c2ccccn2)CC1 |  | active: 2.59 µM
44 | CCCCc1n(CC(=O)c2ccc(Cl)cc2)c2ccccc2[n+]1C |  | active: 6.51 µM
45 | CC1(C(=O)NCc2ccc3c(c2)OCO3)CCN1C(=O)Cc1ccc(Cl)cc1Cl (stereo unspecified) |  | inconclusive: 29.1 µM [inhibitor, single point]
46 | CCOC(=O)C1CCCN(C(=O)c2cc(COc3ccc(C)nc3)on2)C1 (stereo unspecified) |  | inconclusive: 25.9 µM [inhibitor, single point]
47 | CC(=O)Nc1cccc(-c2ccnc3c2CC(C)(C(=O)Nc2ccccc2)O3)c1 (stereo unspecified) | inconclusive: -32% [inhibitor] | 
48 | COC(=O)[C@@]1(Sc2ccc(C)cc2)CC(=O)N(c2ccccc2)[C@@H]1c1ccccc1 |  | active: 18.4 µM

Row | SMILES | activity change, negative = growth inhibition | Potency
49 | COc1ccc(/C=C/CN2CCN(CCc3ccccc3)C(CCO)C2)cc1 (stereo unspecified) |  | inconclusive: 29.1 µM [inhibitor, single point]
50 | O=C(/C=C\c1ccc(-c2ccccc2)o1)c1ccccc1 |  | inconclusive: 20.6 µM [inhibitor, single point]
51 | O=C(CCSc1nc(-c2ccco2)cc(C(F)(F)F)n1)N1CCCc2ccccc21 |  | active: 16.4 µM
52 | COc1ccccc1C(=O)N[C@@H]1c2ccccc2C2(CCN(Cc3cnn(C)c3C)CC2)[C@H]1O |  | inconclusive: 32.6 µM [inhibitor, single point]
53 | C/C(CC(=O)Nc1ccccc1F)=N\NC(=O)Cc1ccc(Cl)cc1 | inactive: -1.26% | 
54 | Cc1ccccc1NS(=O)(=O)c1cc(C(=O)Nc2ccccc2-c2ccccc2)ccc1Cl | inactive: -18.2% | 
55 | CC[C@@H]1C=C(C(=O)O)[C@H](c2cccc(C)c2)N1S(=O)(=O)c1ccc(C)cc1 | inactive: 15.5% | 
56 | COc1ccc(-n2c(=O)c(-c3ccc(Cl)cc3)nc3cnc(N4CCOCC4)nc32)cc1 | inactive: -12.2% | 
57 | CC(C(=O)Nc1ccccc1C(F)(F)F)n1nnc2sc3c(c2c1=O)CCCC3 (stereo unspecified) |  | inconclusive: 18.4 µM [inhibitor, single point]
58 | CCCCc1ccc(S(=O)(=O)NC(=O)C2(C)CCN2C(=O)c2cccc(F)c2)cc1 (stereo unspecified) | inactive: -5.33% | 
59 | CCOC(=O)Cn1c(=O)n(Cc2ccccc2)c(=O)c2cccnc21 | inactive: -6.74% | 
60 | Cc1ccc(NC(=O)c2cccc(N3CCCS3(=O)=O)c2)cc1C |  | inconclusive: 20.6 µM [inhibitor, single point]
61 | CC1(C)CC(=O)C=C(c2cccc(O)c2)C1=O | inactive: -0.325% | 
62 | Cc1ccc(NC(=O)[C@H]2O[C@@H]3OC(C)(C)O[C@@H]3[C@H]3OC(C)(C)O[C@H]32)cc1F |  | inconclusive: 16.4 µM [inhibitor, partial curve]
63 | CCc1cccc(NC(=O)Cn2cc(C=O)c3ccccc32)c1 |  | active: 10.3 µM
64 | COc1ccc(CC(=O)Nc2ccc3c(C)cc(=O)oc3c2)cc1OC | inactive: -29.3% | 
65 | COc1cc(/C=N/NC(=O)c2ccc3c(c2)OCCO3)c(Br)c(Br)c1O |  | inconclusive: 7.31 µM [inhibitor, partial curve, poor fit]
66 | CC(=O)OCCN1c2ccccc2Sc2cnccc21 |  | active: 14.6 µM
67 | O=c1n(Cc2ccccc2)c(O)c2n1Cc1ccccc1N=C2c1ccccc1 |  | inconclusive: 29.1 µM [inhibitor, single point]
68 | COc1ccc(C(CNC(=O)c2cc3ccccc3cc2O)N2CCOCC2)cc1 (stereo unspecified) |  | inconclusive: 18.4 µM [inhibitor, partial curve]
69 | O=C(NCCn1cc(SCc2ccccc2F)c2ccccc21)c1cccs1 |  | active: 20.6 µM
70 | O=C1CCCC2=C1C1(O)C(=O)c3ccccc3C1(O)O2 (stereo unspecified) |  | inconclusive: 14.6 µM [inhibitor, partial curve]
71 | Cc1ccc(Cc2c(-c3ccc(C#N)cc3)nc3ccc(Cl)cn23)cc1 |  | inconclusive: 29.1 µM [inhibitor, single point]

— PubChem BioAssay AID686978 (National Center for Advancing Translational Sciences (NCATS), 2013)
